Measured values from the supplement of paper PMC3334620.
In all, about 33,000 sequences were measured (“E-score (-0.5 to 0.5)”: median about -0.016, highest 2% from about 0.31 on). Some of the results follow.

target: Cst6 (UniProt P40535); assay: PBM E-score (8-mer binding enrichment) (E-score (-0.5 to 0.5)); higher = stronger / more preferred TF binding; most listed sequences are background and not binding sites; conditions: protein concentration: 200 nM; construct: GST-DNA-binding domain
In short: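 E-scores (a modified Wilcoxon-Mann-Whitney statistic) were assigned by the Universal PBM Analysis Suite to every ungapped eight-base word pooled with its reverse complement. The input came from universal all-10-mer Agilent arrays made double-stranded by primer extension and probed with GST-tagged yeast transcription factors at about 100-200 nM. Fluorescent anti-GST detected bound protein, and masliner normalised the scans.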

Row | Sequence | PBM E-score
1 | CAAGTTCG | -0.156
2 | ACTCCGTA | -0.0531
3 | AGACCAGC | -0.339
4 | CAAGATAA | 0.158
5 | ATATGTAA | 0.225
6 | ATAATGGG | 0.0959
7 | CGGACGAC | -0.178
8 | GCAGTCCA | -0.103
9 | ATTGTGGG | -0.22
10 | AGCGCGAT | 0.0797
11 | CTTATCGC | -0.1
12 | TGGCACCA | -0.196
13 | GACCGCAC | -0.044
14 | ACGGTTCC | -0.0941
15 | AGACGTTC | -0.0634
16 | ATGCGCCA | -0.0402
17 | ACCTAAAG | 0.0272
18 | CCAAACCG | -0.0787
19 | GTCAAGAC | -0.0494
20 | GCTCCGAC | -0.282
21 | ATTCTGCA | 0.148
22 | ATCTGGGC | -0.19
23 | AGCTCAGA | -0.0663
24 | CAGGTTCC | -0.289

Row | Sequence | PBM E-score
25 | GGTCTTAC | 0.0159
26 | ACTTGGCC | -0.0941
27 | AATATGGA | 0.00652
28 | ATACAGCC | -0.059
29 | CACCCCGC | -0.0908
30 | ACGCACCT | -0.123
31 | CTTGTGAC | 0.217
32 | ATGGACCG | -0.136
33 | CCATACCA | -0.171
34 | CATGGTTC | 0.0175
35 | ATTGAGGC | 0.0647
36 | CATCAATC | 0.214
37 | AGTGTGTG | -0.0737
38 | GAGGAACC | -0.125
39 | CGCCTTCA | -0.246
40 | AACTGGAA | -0.0303
41 | CCGCTTGC | -0.0102
42 | CTAAACTC | -0.0924
43 | TCATTACA | 0.368
44 | ATTACATA | 0.396
45 | AGATTACT | 0.144
46 | CGGGCAGA | -0.161
47 | CACTCAAA | 0.0561
48 | GAACAACA | 0.0633

Row | Sequence | PBM E-score
49 | AGAAGACG | 0.114
50 | CAGTGCGG | 0.0412
51 | CTTTCTAC | 0.0658
52 | GGGCAATA | -0.0422
53 | ATATCAGC | -0.0588
54 | CGACTTTA | -0.0726
55 | TGAATGAA | 0.251
56 | AAAGACGG | 0.0165
57 | AACGTGTA | -0.0153
58 | GCGGTGTA | -0.0289
59 | CTAGAAAG | 0.074
60 | AGATACCT | -0.168
61 | AAGCGAAA | 0.062
62 | GACGGCGA | 0.191
63 | ACATTCCG | -0.0588
64 | AACGAAGT | -0.079
65 | CTCAGCAA | 0.0595
66 | AACACATG | 0.121
67 | CAGGGCTA | -0.104
68 | AGTCTATA | 0.0299
69 | AATTAAAG | 0.0757
70 | ACCGTGGC | -0.195
71 | ATGATGAC | 0.378
72 | AATCAAAG | -0.0209

Row | Sequence | PBM E-score
73 | CGCTTCTA | -0.0155
74 | TGCTAGCA | 0.0927
75 | GCACACTA | -0.138
76 | CCGCCTTC | -0.25
77 | GCGTTTAA | -0.00086
78 | AAGTGCGA | -0.0338
79 | CCCGAAGG | -0.167
80 | CCACTGTC | -0.19
81 | AGTTAAAG | 0.073
82 | ACCATCTG | -0.259
83 | CCTTCCTA | -0.177
84 | AGAACGCG | 0.0341
85 | CCAGGAAA | -0.0577
86 | CGCGCGAA | 0.145
87 | GCAGCGAC | -0.112
88 | GGTTGCCA | -0.128
89 | AGCCCCCG | -0.354
90 | ACAAGATA | 0.0758
91 | CGCCAACG | 0.0132
92 | GGACGGAA | -0.119
93 | CATGTCGC | 0.0415
94 | AGCTAGGC | -0.263
